Results: PubChem BioAssay AID652104 (National Center for Advancing Translational Sciences (NCATS), 2013)
In all, about 410,000 compounds went through this assay and about 7,200 (1.8%) were called active. This list was built around the results that the source calls inconclusive (neither active nor inactive); the mix of calls is not that of the screen. Calls follow the shape of the dose curve; as a rule, active = well fitted activation curve with a large enough effect; inconclusive = small, poorly fitted or top-dose-only effect, or another doubt; inactive = no such curve, though single readings can be large or run the other way. Potencies of inconclusive entries are left out as doubtful fits.

Assay: qHTS of TDP-43 Inhibitors; also: nearly all actives have a fitted effect of over 50% in size; as to growth rescue (activation): % of control where 0% means no effect
Conditions: TDP-43 expressing yeast growth rescue, BacTiter-Glo, 24 h; growth rescue (activation): at 46.1 µM (top of the series) unless noted
Outline: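 Yeast cells expressing TDP-43 under galactose induction are exposed to compounds for 24 hr at 30 deg C. BacTiter-Glo luminescence measures growth, so protective compounds score as activators.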
Potency is read from the fitted curve at half-maximal effect; tags tell the direction and shape of the fitted curve.

| Structure (SMILES) | Potency | growth rescue (activation) |
| --- | --- | --- |
| CCCCCSc1nnc2c(n1)OC(c1ccc(C)s1)N(C(C)=O)c1ccccc1-2 (stereo not drawn) | inconclusive [activator, single point] |  |
| CCN(CC(=O)Nc1cccc(OC)c1)c1ncnc2sc(C)c(C)c12 | inconclusive [activator, partial curve, poor fit] |  |
| Cc1c(Cl)cccc1N1CC(c2nc3ccccc3n2Cc2ccccc2F)CC1=O (stereo not drawn) | active: 25.1 µM |  |
| C=CCNc1nc(N)c([N+](=O)[O-])c(Nc2cccc(Cl)c2)n1 | inconclusive [activator, full curve] |  |
| Cc1cc(-n2c(C)cc(C(=O)CSc3ccc4c(c3)OCCO4)c2C)no1 | inconclusive [activator, partial curve] |  |
| CCC(=O)c1ccc(OCC(=O)Nc2ccc3nc(C)sc3c2)cc1 | inconclusive [activator, full curve, poor fit] |  |
| CCOC(=O)c1ccc(Nc2cc3ccccc3c(=O)[nH]2)cc1 | inconclusive [activator, partial curve] |  |
| Cn1cccc1/C=N/n1c(-c2ccc(C(C)(C)C)cc2)n[nH]c1=S | inconclusive [activator, partial curve] |  |
| Cc1ccc(C(C(=O)NC(C)(C)C)N(C(=O)CCC(=O)Nc2ccccn2)c2ccccc2F)cc1 (stereo not drawn) |  | inactive: 9.78% |
| Oc1ccc(/C=N/n2c(COc3ccccc3)n[nH]c2=S)c(O)c1 |  | inactive: 14.3% |
| Cn1ncc2c(Nc3ccccc3Cl)nc(Cl)nc21 | inconclusive [activator, partial curve] |  |
| CCOc1ccc(N(C(C)C(=O)NCCSc2ccc(Cl)cc2)S(C)(=O)=O)cc1 (stereo not drawn) | inconclusive [activator, single point] |  |
| O=S(=O)(NCCCN1CCOCC1)c1ccc(Cl)s1 | inconclusive [activator, single point] |  |
| O=C(NCC1CCCO1)c1cc(-c2ccc(Cl)cc2Cl)on1 (stereo not drawn) | inconclusive [activator, partial curve] |  |
| Cc1cc(-c2ccc(C)c(S(=O)(=O)N3CC(=O)Nc4ccccc43)c2)on1 |  | inactive: 8.02% |
| COc1ccc(Sc2ccc(-c3nc4cnccn4c3NC3CCCCC3)cc2OC)cc1 | inconclusive [activator, single point] |  |
| O=C(CSc1nc2ccccc2c(=O)n1-c1ccc(F)cc1F)Nc1ccc2c(c1)CCC2 | inconclusive [activator, partial curve] |  |
| Cn1cc(C(CO)Cc2ccccc2)c2ccccc21 (stereo not drawn) | inconclusive [activator, partial curve] |  |
| Cc1nc(N2CCN(c3ccccc3)CC2)nc2c1C(=O)CC(C)C2 (stereo not drawn) | inconclusive [activator, partial curve] |  |
| O=C(Nc1cccc2ccccc12)c1cc2c(cc1Br)OCO2 | inconclusive [activator, single point] |  |
| Cc1ccc(-c2nnc(SCC(=O)N3CCCc4ccccc43)o2)cc1 |  | inactive: 22.1% |
| Cc1cc(N/N=C/c2ccccc2O)nc(-c2ccccc2O)n1 | inconclusive [activator, partial curve, poor fit] |  |
| c1ccc(Cn2ncc3c(Nc4ccccc4)ncnc32)cc1 | active: 12.6 µM |  |
| CC1CC2(CCCCC2)Nc2ccc3ccccc3c21 (stereo not drawn) |  | inactive: 17.1% |
| O=C(Nc1ccccc1O)c1ccc(Cl)cc1 | inconclusive [activator, partial curve] |  |

| Structure (SMILES) | Potency | growth rescue (activation) |
| --- | --- | --- |
| O=C(COc1ccc(F)cc1)N1c2ccccc2CCc2ccccc21 | inconclusive [activator, partial curve] |  |
| CCOc1cccc2sc(N3CCN(C(=O)C(C)(C)C)CC3)nc12 | active: 11.2 µM |  |
| Cn1c(-c2ccccc2)cc2c3no[n+]([O-])c3ccc21 | active: 3.55 µM |  |
| CN(C)S(=O)(=O)N1CCN(c2ccccc2Cl)CC1 |  | inactive: 6.85% |
| Cc1ccc(C2=NCCn3c2c2ccc([N+](=O)[O-])cc2[n+]3[O-])cc1 | inconclusive [activator, partial curve] |  |
| COc1ccc(OC)c(C2=NOC(C(=O)Nc3ccccc3SC)C2)c1 (stereo not drawn) | inconclusive [activator, single point] |  |
| O=C(Nc1ccccc1N1CCOCC1)c1ccc([N+](=O)[O-])o1 |  | inactive: 9.92% |
| COc1cccc(Cn2ccn(-c3ccc(F)cc3)c(=O)c2=O)c1 |  | inactive: 19.3% |
| CC(NC(=O)c1ccc(Br)cc1Br)c1ccccc1 (stereo not drawn) | inconclusive [activator, full curve] |  |
| Cc1ccc(-c2nnc(SCC(=O)N3CC(C)CC(C)C3)o2)cc1C (stereo not drawn) | inconclusive [activator, single point] |  |
| Cc1ccc(C(=O)c2oc3ccccc3c2NC(=O)c2cc(=O)c3cc(C)ccc3o2)cc1 | inconclusive [activator, full curve, poor fit] |  |
| CC[C@H](C)Cc1cn([C@@H](CCCN=C(NC(=O)OC(C)(C)C)NC(=O)OC(C)(C)C)C(=O)NCCCCCCCCCCC(=O)N2CCN(C(=O)OC(C)(C)C)CC2)nn1 | inconclusive [activator, partial curve] |  |
| O=C(Nc1cccnc1)c1ccc([N+](=O)[O-])s1 | active: 12.6 µM |  |
| Cc1ccccc1Nc1ccc([N+](=O)[O-])cn1 | inconclusive [activator, partial curve] |  |
| Cn1nc(C(C)(C)C)cc1NC(=O)C1(C)CCN1C(=O)C1(c2ccccc2)CC1 (stereo not drawn) | inconclusive [activator, partial curve] |  |
| CCC(=O)N[C@H]1C=C[C@H](CC(=O)OC)O[C@@H]1CO | inconclusive [activator, partial curve, poor fit] |  |
| COc1ccc(Cl)cc1C(=O)Nc1cccc2ncccc12 | inconclusive [activator, partial curve] |  |
| Cc1ccc(C)c(S(=O)(=O)NCc2ccc(C(=O)N3CCCCCC3)cc2)c1 |  | inactive: 0% |
| C=C1C(=O)[C@]23C[C@H]1CC[C@H]2[C@]1(C)[C@@H](OC(C)=O)CC[C@@](C)(C(=O)O)[C@H]1C[C@@H]3O | active: 11.2 µM |  |
| Cc1ccc(N2C(=O)CS(=O)(=O)C23C(=O)N(Cc2ccccc2C)c2ccccc23)cc1Cl (stereo not drawn) |  | inactive: 15.7% |
| Cc1nc2ccn(Cc3ccco3)c(=O)c2cc1C(=O)Nc1ccc(F)cc1 |  | inactive: 15% |
| COc1ccc(NC(=O)Cn2nc(-c3ccccc3)c3cnc4ccc(C)cc4c32)cc1 |  | inactive: 14.5% |
| CC(=O)c1ccccc1OC(=O)c1ccc([N+](=O)[O-])o1 | active: 10 µM |  |
| OC(C#CCN1CCCC1)(c1ccccc1)c1cccc(F)c1 (stereo not drawn) |  | inactive: 27.6% |
| CCNc1c(N)c(=O)oc2ccccc12 |  | inactive: -4.51% |

| Structure (SMILES) | Potency | growth rescue (activation) |
| --- | --- | --- |
| CCCN1C/C(=C/c2ccc3c(c2)OCO3)C(=O)/C(=C/c2ccc3c(c2)OCO3)C1 |  | inactive: -5.77% |
| S=C(Nc1ccc(Cl)cc1)Nc1ccc2cn[nH]c2c1 | inconclusive [activator, partial curve] |  |
| COC(=O)c1ccccc1COc1cccn2c(N(C)Cc3cccs3)c(C)nc12 | inconclusive [activator, partial curve, poor fit] |  |
| COc1ccc(C2=Nc3ccc(OC(F)(F)F)cc3NC(c3cccnc3)=N2)cc1 | inconclusive [activator, partial curve, poor fit] |  |
| CCc1c(C)sc2nc(C(C)C)nc(SCC(=O)N3CCc4ccccc4C3)c12 |  | inactive: -14.5% |
| O=S(=O)(/N=C(/Nc1cccnc1Cl)c1ccccc1)c1ccccc1 |  | inactive: 12.3% |
| Cc1ccccc1CNC(=O)c1ccc2nc(C(C)C)oc2c1 | inconclusive [activator, partial curve] |  |
| Cc1ccc(S(=O)(=O)Nc2ccccc2CNc2ccc(Br)cn2)cc1 | active: 20 µM |  |
| Cc1ccc(-c2cc(C(=O)N3CCN(c4ccc(O)cc4)CC3)c3ccccc3n2)cc1 | active: 15.8 µM |  |
| COc1ccc(-c2onc(C)c2-c2ccc3c(c2)OCCO3)c(O)c1 | inconclusive [activator, single point] |  |
| Cc1cccc(N2CCN(C(=O)COc3cccc4c3OC(C)(C)C4)CC2)c1C | inconclusive [activator, single point] |  |
| CCc1ccc(NC(=O)C2C3C=CC(C4CC34)C2C(=O)O)cc1 (stereo not drawn) | inconclusive [activator, single point] |  |
| c1ccc(CCc2nc3ccccc3[nH]2)cc1 |  | inactive: 5.8% |
| Cc1ccc(-c2csc3ncnc(-n4nnc5ccccc54)c23)cc1C |  | inactive: 13.8% |
| COc1ccccc1[C@H]1C(c2cccc(Cl)c2)=NN(c2ccccc2)[C@@H]1CO | active: 20 µM |  |
| CC(C)(C)OC(=O)N1CCC(c2c(C(=O)NCCN3CCOCC3)cnn2-c2ccc(F)cc2)CC1 |  | inactive: 0% |
| c1ccc2c(NCCc3c[nH]c4ccccc34)c3ccccc3nc2c1 |  | inactive: 4.55% |
| COc1ccc2c(c1)CCc1sc(NC(=O)c3ccc(C)cc3)nc1-2 |  | inactive: -10.2% |
| Nc1ccccc1Nc1c(F)c(F)nc(F)c1Cl | inconclusive [activator, single point] |  |
| CCOC(=O)C1=CCN(S(=O)(=O)c2ccccc2F)C1c1ccc(Cl)cc1 (stereo not drawn) | active: 15.8 µM |  |
| Cc1ccc(Cl)cc1NC(=O)CCc1c(C)nc2c3cccnc3nn2c1C |  | inactive: -8.76% |
| O=C(c1cccc(Cl)c1)N1c2ncnn2C2(CCCCC2)[C@@H]2CCCC[C@@H]21 | active: 12.6 µM |  |
| COc1ccc(C(C)(NC(C)=O)c2nc(-c3ccc(S(C)(=O)=O)cc3)cs2)cc1 (stereo not drawn) | inconclusive [activator, partial curve] |  |
